Read counts are not given, so values of variants with three or more changes are uncertain.

Sequences and labels used below:
B1: OR4K15 (parent)
chain: GUUAACGGUCAUAGGCCAUGGAAACUAGGAGCACCAUUUCGCUGCCAGUGAAGAAAUGAACAAAGAAAAUCUGGGCCAGGCAGGCAUCAAAAGAAAUAGUCUUGCGCUCAACCAGAAAGUCUGUAAUCAUUUUAAGGGUA

The data set covers variants of B1. The data set can be described thus: self-cleavage, relative activity (ratio to wild type); higher = more cleavage; in vitro, sequencing; the parent is a self-cleaving ribozyme.
As for A56U A66G A94G U100C U108C, the self-cleavage came to 0.

For U57C A91G A92G, the self-cleavage turned out to be 0.72.

In the case of A59C U70C U130C, the self-cleavage was found to be 0.44. Regarding A56G U72C A96G A116G U122C, the self-cleavage came out at 0.05. As for A56G A60G A68G, the self-cleavage worked out at 0.49. A59G A114G A118G U124C: the self-cleavage worked out at 0.01.

With A60G A129C A135C, the self-cleavage worked out at 1.31. With A60G A67G G106A, the self-cleavage turned out to be 0.02.

For the variant A59G A62U U103C U122C, the self-cleavage came out at 0.56.

Take A56G C109A U130C: the self-cleavage was determined as 0.28. Then A56G A78U A86G A94G A126U, with 0.06; and U57C G115U U122C U130C G138A U139A, with 0. Next, A60G A63G A64G A111C A126G: 0.01; U57G U103C A116G: 0.04; U57A A95G A116U A126G: 0.09.

On to U57A A90G U108C, for which the self-cleavage is 0.

Consider A56C G106A A118G U132C, for which the self-cleavage was 0.01.

For A60G A92U A95G U130C, the self-cleavage was determined as 1.38. As for U57C A63U A67G A78U U130C, the self-cleavage stood at 0.23. As to A60G A68G A114U, the self-cleavage turned out to be 0.02. Then A60G A98G U100C A111U, with 0.02.

With A60U A63G A92G, the self-cleavage amounted to 1.39.

Take A59G A90G A116G: the self-cleavage worked out at 0.46. In the case of A60G A64U A67G A90U U131C, the self-cleavage came out at 0.5. On to A56G A116G A117G, for which the self-cleavage was found to be 0.25. Next, A59G A95G A118U: 1.27; A59U A82C U102C A129G: 0.17; A56G U70C U133C: 1.39. Then G58U A67G A86G U87C, with 0.22; and A59G A118G U127C, with 0.49; and A60G A66G A78U A95U, with 0.21. For A56G A111G U127C, the self-cleavage came to 0.01. Then A56G U100C U103C, with 2.45.

For A60G U120C A140G, the self-cleavage stood at 1.1. Regarding A60G G73A U131C, the self-cleavage worked out at 0.15. For the variant A60G A82G A95G U120C, the self-cleavage came to 0.23. As for A56G U87A C88U A96U U102C, the self-cleavage was found to be 1.85.

With U57C G106A U120C, the self-cleavage is 0. Next, A60U C76A U127A U131C G137A: 0.15; U57C A62G A69G U87C A96C: 1.05; A59G A68C A118G: 1.51.

A55G U70C G106A A116G U120C A125G: the self-cleavage is 0.01.

As to A59G U100C U103C, the self-cleavage worked out at 1.13. Next, U57A A117G U122C: 0.15. In the case of U57C A89U A114G, the self-cleavage turned out to be 0.24. Then A60G C121U U127C G137A, with 1.48.

For A59G A82G A140C, the self-cleavage was 0.76. On to A56G A64G U102C A110G, for which the self-cleavage came to 0.21.

Turning to A56G U97A U130C, the self-cleavage worked out at 0.67. A60G A67G U122C: the self-cleavage is 1.62. In the case of U57C U102A U127C A140G, the self-cleavage turned out to be 0.39. For the variant A59U A62G A95G, the self-cleavage was 1.78. Regarding A59G A66G A67G, the self-cleavage stood at 0.83. For A56G A78U C113U, the self-cleavage was 0.03. Take U57C U70C A92G: the self-cleavage came to 0.75. Next, U57A A68G A96G: 0.79; A56G A66G A126C: 1.5; U57C A63G A110G: 0.16. A56U A66G U70G C107A: the self-cleavage turned out to be 0.

Take A56G A82U A94G A96G U122A: the self-cleavage is 0.07. Regarding A60G A67G G74U A86G, the self-cleavage is 0.04. Then A60C U102C A125G, with 1.21; and A59U A95G A126G U127C, with 0.46. Take A59U U100A A125G: the self-cleavage was determined as 0.21. For the variant A56G A69G U87A U120C, the self-cleavage came to 0.39. Then A60G A86U U87C, with 0.94; and G58U A111G A118G, with 0.03.

Consider A60G U108C G115U, for which the self-cleavage was determined as 0. As to A60G U87C A91G U108A U124G, the self-cleavage was 0.01. Then A59G U127C U133C, with 0.72.

Regarding A56U U72G U103C U108G, the self-cleavage is 0.02. As for A60C A67G A134G, the self-cleavage is 1.74. As for U57A U87C U120C, the self-cleavage worked out at 0.5. Then A60G A69G A129G, with 0.8; and A56U A82G A110G, with 0.1. As to A60G A94G A110U U139C, the self-cleavage amounted to 1. Then A60G A67G A90G, with 0.14. Next, A56G A60G A95G U122C: 0.44; A56G A69G A92G: 1.6; U57C A89G C113U A117G: 0.01.

With U57C A63U A69U U131C U132C, the self-cleavage turned out to be 2.17. In the case of A56G U120C U122C U130C, the self-cleavage is 1.06. For the variant A59U A62G A78U U87C, the self-cleavage came out at 0.32.

A59G A64G A67G A82G: the self-cleavage turned out to be 0.51. For the variant A59G U87C A95G, the self-cleavage worked out at 0.82. As for A56C A67U U127G, the self-cleavage came to 1.76. In the case of U57A A69U A91G A117G U131C A135U, the self-cleavage was found to be 0.27. As for A59G A111G A117G, the self-cleavage stood at 0.02.

U57C U100C A110G A126C: the self-cleavage came out at 0.08.

As for U57G A62G U72C U103C A111G A114G U122C, the self-cleavage amounted to 0.01. Next, A56G A64G A94G A126G: 1.03; A60G A64G A116G A126G: 0.21. Take A59G A62U U103C: the self-cleavage was 0.57. Then A56G A59U U133A, with 1.82; and U57C A91G A111U, with 0.02.

In the case of A56G A96G U120C, the self-cleavage came out at 0.64. As for A59G U72A U102G, the self-cleavage was determined as 0.12. For U57A A67G U87A G136A, the self-cleavage came to 1.57. For the variant A56G U108C A126G, the self-cleavage is 0. A55U A63U A114U: the self-cleavage was 0.1. Next, A60G A78G U122C: 0.27; A56G A59G U87A A95G A111G G137A: 0; A59G A96G U97C: 1.24. Turning to A60G A78G A90U U120C A125G, the self-cleavage worked out at 0.02. Regarding A56C A66G A94G A114U, the self-cleavage came out at 0.03.

Consider A60G U70C A114G, for which the self-cleavage worked out at 0.04. A56C A78U A91U U120A U122C: the self-cleavage amounted to 0.14.

As to U57G G75C A126G, the self-cleavage came out at 0.16.

Consider U57A A60G U72C, for which the self-cleavage is 0.17.

On to U57C A62G A67U, for which the self-cleavage came to 1.12. With A56G U108C U124A, the self-cleavage came to 0.

As for A56G A67G A91G, the self-cleavage was found to be 1.49. Then A60G A66G A114U, with 0.06. A56G A116G A135U: the self-cleavage was determined as 1.23. For A56G A60G A110U, the self-cleavage came to 0.99. Next, A59G G73A A78G A95G: 0.33; A56G G99A U102C U127C: 1.24; G58U A92G A111G U122G: 0. Turning to A56G U124C A125G, the self-cleavage came to 1.52. U57G U130C A140G: the self-cleavage worked out at 0.91. Next, A60G U72C G119U: 0.19; U57C A86G A110U U132A: 0.95; A56G A69G A125G: 0.3.

Regarding U57C A78U U122C, the self-cleavage turned out to be 0.15. Then A60U A96G A110G, with 0.16; and A56G A64G A69U A78G U97C U108G U120C U132C A135C, with 0. Take A59U A66G U120C: the self-cleavage was 2.04. Turning to U57G U87A A92G A118G, the self-cleavage amounted to 0.31. Next, A60G C85U G104A: 0.16; A59U A82G A95U C109A A111G: 0.02. Consider U57C A60G U70G, for which the self-cleavage is 0.66. Turning to G58U A89U A116G A118G, the self-cleavage came to 0.1.

On to A60G U122C A125G, for which the self-cleavage was 0.35. As to A60G U103C A111G A140G, the self-cleavage was 0. With A59G A90G U103C U130C, the self-cleavage is 0.47. Next, A59G A92G U108C: 0.01; A56G A95G A110G: 0.15. Next, A59G A82G U102A: 0.32; U57C A59G A89G: 1.91; A59G A67G U122C U127C: 0.76. Next, A55G U87C A118G U120C U139A: 0.05. On to A60U A78U U122C, for which the self-cleavage amounted to 0.21. For A56G U120C G138C, the self-cleavage stood at 1.22. Then A59G U122A G123A, with 2.52. Take U57C C105U U122C U130C: the self-cleavage stood at 0.03. For the variant A59U A62G A82G A91G U130C, the self-cleavage was 0.04.

A59G A92G U127C: the self-cleavage was found to be 0.98. Consider U57G U87C U131C, for which the self-cleavage is 1.8. As to A60G A86G U120A, the self-cleavage is 0.65.

For the variant G58U A60C A92G G136C, the self-cleavage was 1.64. As to A59G A82U U132A, the self-cleavage is 0.34. In the case of A60G A66G U87C U122C, the self-cleavage was determined as 0.92.

Regarding A60G A66G A94G U120C, the self-cleavage came to 1.59.

Take A59G A95G A111G: the self-cleavage was 0.04. Turning to A59G A67G A118U, the self-cleavage stood at 1.49. Next, A59G A91G A116G U132C U133C: 0.18. Next, A56G G73U A91G A96G A98G U100C U108C A110G A118G: 0. Then A60U A64G U108C, with 0.02; and A60G A67G A117G U127C, with 0. Turning to A56G A59U A66G A89G U139C, the self-cleavage came out at 1.37. Next, A56G U102C A111U A135G: 0.04; A56G U87A A90G: 1.12. In the case of A55G U87A A98G, the self-cleavage came out at 0.08. Turning to A59G A94U A96G U100C U122C, the self-cleavage worked out at 1.92. In the case of A60U U72A A91U U100A, the self-cleavage amounted to 0.03. Next, A55G U100C U102C A140G: 1.98; A60G A62G U102C: 1.96.

Source of the values: the RNAGym collection of RNA variant scans (doi:10.7554/elife.90254).
